From the supplement of paper PMC3724861
This is one part of the list.

These sequences were tested on T1, Caupolican (Caup) homeodomain DNA-binding domain (assay: PBM E-score (8-mer, recovered from the published 9-mer minima) (E-score (dimensionless, -0.5 to 0.5)); Drosophila protein; higher = stronger relative binding preference, active = 0.31 or more).
T1 sequence: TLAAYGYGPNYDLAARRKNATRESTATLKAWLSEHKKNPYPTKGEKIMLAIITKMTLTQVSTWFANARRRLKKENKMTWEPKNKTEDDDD
How it was run: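 An enrichment score, with higher meaning stronger, expresses relative binding preference for each short DNA word. The protein used was Caup's homeodomain DNA-binding domain (residues 214-303), produced by in vitro transcription and translation and tested at 100 nM on custom-designed protein binding microarrays. The 8-mer values were recovered from published 9-mer scores, each equal to the lower of its two constituent 8-mer scores.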

PBM E-score, ≥ -0.097:
CGGCTCCA

PBM E-score, ≥ 0.153:
AACCTGAT

PBM E-score, ≥ 0.178:
ACTCAACA

PBM E-score, ≥ 0.126:
CGAAACCA

PBM E-score, ≥ 0.137:
CAAATCGA

PBM E-score, ≥ 0.218:
TCCTGACA

PBM E-score, ≥ 0.0779:
AAGCTTAT

PBM E-score, active:
ATGTACAG 0.343
AACAACAC 0.392

PBM E-score, inactive:
CCGTCGAG -0.0945
ATTTTGCG 0.0398
CGGCGCAC -0.219
CCGAATGA 0.00755
AGCCTCAC -0.108
ACGGGGGG -0.314
AATATTCC 0.0785
ACCACCGT 0.0306
AATGAACC -0.0632
ATCTCCTC -0.082
CTACGCTC -0.105
AGTAGGGA -0.0548
GCTCTGTA 0.105
AGTAAAAA 0.147
CTATGAAG -0.0724
AAGGTGGC -0.102
GCGTGAAC -0.0106
CGTACGAG -0.0397
CGTTTGAA -0.0324
ATCGGGCG -0.115
CGATGAGC -0.0457
AATAGTAC 0.186
GATACGAA 0.129
ACAGTACG 0.0926
GACGCCGC -0.188
CAACAAAG 0.159
CCGCAATA 0.0192
ACTCTATC 0.0542
GGTGCTTA -0.121
ATACGTTC 0.0354
CCGTTTGC -0.172
GAGGACTC -0.122
AGATATTG 0.0643
AACTCCTA 0.00852
AAGCACTG 0.0317
GTACCTGA 0.158
TATAAGCA 0.0735
CTGTGGAC -0.0237
CCCCGGGC -0.32
GTAGTTCA 0.136
CAAGGCAC -0.068
AGAAGTTG -0.0169
AGTGGGGG -0.317
TAATGTGA 0.141
ATGGAGCC -0.097
CAATCCTC -0.0654
CGGCCATC -0.239
ACGAATCA 0.0895
AATATGCT 0.121
AACTGCAT 0.12
TGACGCAA -0.0112
GGCAGAGA -0.188
AATATAAG 0.113
CCAGCTTA -0.0387
AATACTGT 0.14
CACCGGCG -0.123
CCAAAGGA -0.0596
ACATCAAA 0.26
ATTTGAAA 0.105
ACAACCCT 0.145
ACCGTACG -0.00187
GGATCGAC -0.017
AGAATTTC -0.0921
ATCCGGTA 0.0596
ATCCGGAT 0.00243
ATGTCCAG 0.2
AGAGATGC 0.0307
CGACGTAG -0.0808
GCTTATCC -0.00552
CAATTCGA 0.042
CTTCAAAG 0.0151
ATCAGGAT 0.0277
CAGTCCAC -0.103
CCAGGTAG -0.0444
ACCCTAGA -0.0173
CAGTTTTA -0.0317
ACTAAAGA -0.00917
GACGCTGC -0.148
GCCAATGA -0.0694
AGTTACCC 0.0727
CTACCAAC 0.174
CTTACCGC -0.0625
AGACGCAG -0.0515
GGACCGCA -0.188
CGTGAGGA -0.0619
CTACTTCA -0.0221
CGCACCAC -0.0764
ATAAGTGG 0.0344
AACGTGCG -0.0165
TCGCTGAA -0.018
GGGTATAC 0.0801
CACCTTCG -0.0818
CGAATTAG 0.106
GCGGACTA 2e-05
ATACATTG 0.261
ATGTAGGC 0.12
GGGCGGTA -0.243
AGGCGGAA -0.0545
TCGCACAA 0.03
AGGCAACA 0.0395
ACTGACCA -0.0989
ATGGCGGC -0.15
AAACCTAT 0.0971
TAATCAAA 0.176
GCAATTAC -0.0243
CAATAAGG -0.0326
CAAGTGCA 0.145
AATTACAC 0.299
ATCGTATA 0.17
ATTATAGG 0.0888
AAACCAAC 0.099
GCAGATCA 0.0121
CCTCTACG -0.0999
CTATATGA 0.0936
CCTCCGGC -0.25
ACCAGGAT 0.0682
ACACCAAT 0.189
CGGTGTGC -0.147
ACGGCTTG -0.133
ATTCCTAG -0.0259
CACGCCGC -0.181
CGCCGACA -0.00338
AGCGTGTC 0.231
ACTTCTAC 0.113
TATCTGGA -0.0362
GGTTGAGA -0.132
TAAAAAAA 0.0221
ACTGTACA 0.257
AACGTGAG -0.0335
AAGGCAGG -0.12
CGGACCCA -0.12
CAGAACTG 0.0475
AATATTCT 0.136
CTATATAA 0.141
CAGCCAAC -0.0706
AGGTCAAT 0.0587
GGCAGCTA -0.136
AGAGCGTC -0.0587
GTGCATCA 0.088
CGGATCGA -0.118
ACACGGTG 0.307
GGCGCTAC -0.16
AAAGGCGA -0.0088
ACGACCAT 0.0458
CCACGGTC -0.131
ATTCAGGC -0.0455
CCAACCCA -0.128
ACAAGCGT 0.265
ATGATAAG 0.126
AATAAGGT 0.0179
ATCTAGGA -0.0135
CATGTTGC 0.279
CCAGTGCG -0.16
ATTCCGCC -0.117
CAAACAGA 0.115
ACCAATTC 0.101
CGATGACC -0.0166
CGTCCTGC -0.113
ACAGCGAT 0.0318
AGTCGCGC -0.119
TATACGCA 0.0803
CCACTCGG -0.158
CCGATGAC -0.0299
ATCTTTAG -0.00571
ATGAATCC 0.104
CTGATGCA 0.0187
ATGGTGAA -0.0304
GCATTCCA -0.0726
AGCGCAGA -0.1
CGTACGTA 0.0739
CGCGAAAC -0.0398
GATCCGGC -0.107
AAACTATT 0.0958
ACGGGCCT -0.195
CACGGGAG -0.0794
CAGCCGAA -0.0791
CGCCGGTA -0.0479
AATATCGA 0.15
GTTAAGTA 0.147
CGCATCCC -0.161
CTCATATA 0.113
ACGCCGAA -0.127
ACAAACGC 0.0263
CGAACCCG -0.15
CAATAGGA 0.0513
AACATTAC 0.244
ACCGATAT 0.0303
CATCAATA 0.164
CTCGGTAA -0.0579
AGATATCT 0.0618
AAGAGACT -0.0798
CCATTCGG 0.00964
ACTAGGGA -0.0769
TAGTAATA 0.28
AGATGGGC -0.186
GCAAGGAA 0.00778
AGGCTTAG -0.108
AATTAAAC 0.223
CACGAATA 0.187
CAAAGTAC 0.172
AGATTCTA 0.0842
GCGTCTAC -0.0987
ACCCGTAT 0.0244
AGCGGGCG -0.261
CAGCCATC -0.0335
ATACTACG 0.0679
CTTATTGA 0.0828
GACCCAGC -0.162
CTATCCGC -0.14
ACCACTTA 0.0907
GCAGGAGA -0.128
CAGGTCGG -0.0619

PBM E-score, ≥ 0.0385:
ATGCGCAT

PBM E-score, ≥ 0.0704:
AGCGGTAT

PBM E-score, ≥ -0.137:
ACCCGGCA
